Measured values from ChEMBL document CHEMBL1201862, “PubChem BioAssay data set” (2004).
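In this assay, cells in 96-well plates receive the compound at five concentrations for 48 hours. Endpoints are linearly interpolated between the surrounding concentrations. GI50 marks 50% less growth.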 Activity calls are given as the source filed them. No stated cut-off is given here; in the data, active = GI50 up to about 1.1 µM and inactive = higher.

Test system: NCI-H322M
Assay: NCI anticancer screen, dose series, 48 h

| Compound | GI50 |
| --- | --- |
| NCCN(CCN)/[N+]([O-])=N/O | inactive: > 100 µM |
| COc1cc(C(=O)c2cocc2C(=O)c2ccc3c(c2)OCO3)cc(OC)c1OC | inactive: 3 µM |
| CN(C)CCCNc1c2c(nc3ccc(Cl)cc13)CCCC2 | inactive: 11.2 µM |
| COc1nc(C#CCCCC#N)nc(OC)n1 | inactive: 19.1 µM |
| Sc1ncc2[nH]nnc2n1 | inactive: > 100 µM |
| CNC1Cc2c[nH]c3cccc(c23)C12C=C(C)C(=O)O2 (stereo unspecified) | inactive: > 100 µM |
| O=C1CC(c2cccc(Br)c2)n2cccc21 (stereo unspecified) | inactive: > 100 µM |
| Cc1ccc(S(=O)(=O)NC(C)C(=O)O)cc1 (stereo unspecified) | inactive: > 100 µM |
| C=CC1OC(CCCOC(=O)C(C)(C)C)O[C@@H]1CC (stereo partly specified) | inactive: > 100 µM |
| N#CC(C#N)/N=C/c1ccncc1 | inactive: > 100 µM |
| COc1ccc2c(c1)CC[C@@H]1[C@@H]2CC[C@]2(C)/C(=N/OCCN3CCCCC3)CC[C@@H]12 | inactive: 3.65 µM |
| C=CCCCCOC1C=CC(OC(C)=O)C(COC(C)=O)O1 (stereo unspecified) | inactive: > 100 µM |
| Cc1nnc2n1N=C(c1ccccc1)/C(=C/c1ccc(-c3ccc(Cl)cc3)o1)S2 | inactive: 16.7 µM |
| CC12CCC(CC(=O)/C1=C(/Br)I)C2(C)C (stereo unspecified) | inactive: 18.2 µM |
| O=P(NCCCO)(OCc1ccccc1)N(CCCl)CCCl (stereo unspecified) | inactive: > 100 µM |
| COc1cc(C)c(O)c(C(=O)O)c1 | inactive: > 100 µM |
| COc1ccc(C/C=C(\C)CCO)cc1 | inactive: > 100 µM |
| Nc1nc(Cl)c(N)c(NCC2(CO)CC(Cc3ccccc3)C2)n1 (stereo unspecified) | inactive: > 100 µM |
| N#Cc1c(N)sc2c1-c1ccccc1OC2 | inactive: 32.1 µM |
| C=CCn1c(=S)sc2c(C(=O)OCC)c3c(C)cc(C)cn3c2c1=O | inactive: > 100 µM |
| O=C1CC2CCN(C(=O)c3ccccc3)CC2CCN1.O=C1CCC2CC(C(=O)c3ccccc3)CCC2CN1 (stereo unspecified) | inactive: > 100 µM |
| COC(=O)c1ccccc1NC(=O)/C(=N\NC(C)(C)C)C(C#N)c1nc(-c2ccc([N+](=O)[O-])cc2)cs1 (stereo unspecified) | inactive: > 100 µM |

| Compound | GI50 |
| --- | --- |
| CN(C)[C@@H]1C(O)=C(C(N)=O)C(=O)[C@@]2(O)C(O)=C3C(=O)c4c(O)cccc4C[C@H]3C[C@@H]12 | inactive: 2.44 µM |
| CC/C(Cl)=N\OC(=O)Nc1ccccc1OC(F)(F)F | inactive: 19.6 µM |
| O=C(O)c1ccc2[nH]c(=O)oc2c1 | inactive: > 100 µM |
| Cc1cccc(C(C)C)c1N1C(=O)C(=O)C(c2nc3ccccc3o2)C(=O)C1=O | inactive: > 100 µM |
| O=C1CCC2SC1CCC2=O | inactive: > 100 µM |
| COC(=O)CSc1nnc(-c2ccc(O)c([N+](=O)[O-])c2)[nH]1 | inactive: > 100 µM |
| O=S1(=O)OCCOS(=O)(=O)C1C1c2ccccc2-c2ccccc21 | inactive: 74.5 µM |
| CCOC(=O)NC(=O)c1cn(CC(=O)NCC(=O)NCC(=O)NCCCN2CCN(CCCNC(=O)CNC(=O)CNC(=O)Cn3cc(C(=O)NC(=O)OCC)c(=O)[nH]c3=O)CC2)c(=O)[nH]c1=O | inactive: > 100 µM |
| Cc1ccc(C2(c3ccc(C)c(O)c3C)CCN(C)CC2)c(C)c1O | inactive: 66.7 µM |
| C=CCNC(=S)N1CC(C)C(=O)Nc2ccccc21 (stereo unspecified) | inactive: > 100 µM |
| O=C1OCC(O)=C1C(c1ccc(Cl)cc1)c1cc2c(cc1O)OCO2 (stereo unspecified) | inactive: > 100 µM |
| O=c1[nH]c(NCc2cccnc2)nc2[nH]cnc12 | inactive: > 100 µM |
| Cc1csc2nc3c(cnn3C)c(=S)n12 | inactive: > 100 µM |
| COc1ccc(-c2cc3cc(Cl)cc(Cl)c3oc2=O)cc1OC | inactive: 23.6 µM |
| COc1cc(C(c2cccc3ccccc23)N2C(=O)CCC2C(=O)O)cc(OC)c1OC (stereo unspecified) | inactive: > 100 µM |
| Cc1ccc(N(C)S(=O)(=O)c2ccccc2)cc1 | inactive: > 100 µM |
| CC1(Cl)CC2OC3(Br)C=CC(C)(O)C2(CC1Br)C3(C)C (stereo unspecified) | inactive: > 100 µM |
| CC[C@@]1(O)C(=O)OCc2c1cc1n(c2=O)Cc2c-1nc1ccccc1c2/C=N\NC(=O)C(N)CC(C)C (stereo partly specified) | active: 0.174 µM |
| COC(=O)/C=C(\S/C=C(/c1ccccc1)N1CCn2c(C(=O)c3ccccc3)c(C(=O)OC)c(C(=O)OC)c21)C(=O)OC | inactive: > 10 µM |
| CCOC(=O)C(NC(=O)NCc1ccc(F)cc1)C(F)(F)F (stereo unspecified) | inactive: > 100 µM |
| CCNC1=C(NC(=O)c2ccccc2)C(=O)c2ccccc2C1=O | inactive: > 100 µM |
| O=C1CSC(c2ccc(Cl)cc2)N1c1ccc(-c2ccc(-n3c(-c4ccccc4)nc4ccccc4c3=O)cc2)cc1 (stereo unspecified) | inactive: > 100 µM |

| Compound | GI50 |
| --- | --- |
| Cc1ccsc1/C=N/Nc1cc(C)c2ccccc2n1 | inactive: 18.1 µM |
| CC1(C)C(CCO)CC1n1ccc(=O)[nH]c1=O (stereo unspecified) | inactive: > 100 µM |
| O=C1Cc2c(-c3cccs3)cc(-c3ccccc3)nc2-c2ccccc2N1 | inactive: 34.6 µM |
| O=C(CN1CCN(Cc2ccccc2)CC1)N1CCCn2c1nc1ccccc1c2=O | inactive: > 100 µM |
| CCOC(=O)c1cc(-c2ccc(OC)cc2)c([N+](=O)[O-])n1C | inactive: > 10 µM |
| N#Cc1c(N2CCN(c3ccc([N+](=O)[O-])cc3)CC2)[n+]([O-])c2ccc(-c3ccc([N+](=O)[O-])cc3)cc2[n+]1[O-] | inactive: > 100 µM |
| CCc1n[nH]c(=O)n1CCCCCCCCCCCCn1c(CC)n[nH]c1=O | inactive: 52.2 µM |
| ClC(/N=N/c1ccccc1)=N/Nc1ccccc1 | inactive: > 100 µM |
| CCOC(O)(NC(=O)C(C(F)(F)F)C(F)(F)F)C(F)(F)F (stereo unspecified) | inactive: > 100 µM |
| Cc1cc2c(cc1C)[n+]([O-])c(C(=O)/C=C/c1ccccc1[N+](=O)[O-])c(C)[n+]2[O-] | inactive: > 100 µM |
| Cc1nc(Cl)nc(Cl)c1C | inactive: > 100 µM |
| O=C1Sc2sc(=S)sc2SC1c1ccccc1 (stereo unspecified) | inactive: > 100 µM |
| Cc1cc(C)nc(NS(=O)(=O)c2ccc(Nc3c4ccccc4nc4c(C(=O)NCCO)cccc34)cc2)n1 | inactive: 10 µM |
| Cc1ccc2c(=O)c(C(=O)NNC(=S)NC3CCCCC3)c[nH]c2n1 | inactive: > 100 µM |
| Cc1cn(Cc2ccccc2CCO)c(=S)[nH]c1=O | inactive: > 100 µM |
| COc1cc2c(cc1OC)C1c3ccccc3C(C#N)(C2)N(C(=O)c2ccccc2)C1O (stereo unspecified) | inactive: > 100 µM |
| COC[C@H]1C(=O)NCC(=O)N2N=CCC[C@H]2C(=O)N(O)[C@H](C)C(=O)O[C@@H](C(C)C)[C@H](NC(=O)[C@@](C)(O)[C@]2(O)CC[C@@H](CC(C)C)[C@H](C)O2)C(=O)N2NCCC[C@@H]2C(=O)N1O | active: 0.0196 µM |
| CCOC(=O)CN(Cc1ccccc1)Cc1c(C(=O)c2ccccc2)c2ccccc2n1C(=O)c1ccccc1 | inactive: > 100 µM |
| Cc1ccc(/C=N/NS(=O)(=O)c2ccccc2)c(C)c1 | inactive: > 100 µM |
| COC(=O)c1sc2ncc3c(c2c1N)CC(C)CC3 (stereo unspecified) | inactive: > 100 µM |
| Cc1ccccc1NC(=O)Cc1csc(N/N=C2\NC(=O)/C(=C/c3cccc([N+](=O)[O-])c3)S2)n1 | inactive: 47.8 µM |
| CCN(CC)CC[n+]1ccc2c(C)c3[nH]c4ccccc4c3c(C)c2c1 | active: 0.59 µM |

| Compound | GI50 |
| --- | --- |
| O=C1C2C(C(=O)N1c1ccccc1)C1c3ccccc3C2C2C(=O)N(c3ccccc3)C(=O)C21 (stereo unspecified) | inactive: 3.82 µM |
| CC(C)=CCC[C@@H](C)C1=C(Nc2ccccc2Cl)C(=O)C(C)=C(O)C1=O | inactive: 4.57 µM |
| Cc1ccc(/C=C/C(=O)CCN(C)C)cc1 | inactive: 53.2 µM |
| CC1CCC2(C(=O)O)CCC3(C)C(=CCC4C5(C)CC(O)C(O)C(C)(CO)C5C(O)CC43C)C2C1C (stereo unspecified) | inactive: > 90.4 µM |
| O=C1CSC2(CC(/C=C/c3ccccc3O)=NN2c2cccc(S(=O)(=O)O)c2)N1c1nc2ccccc2s1 (stereo unspecified) | inactive: 37.2 µM |
| O=C1/C(=C(/Br)I)c2ccccc2-c2ccccc21 | inactive: 14.1 µM |
| COc1ccc(NC(=O)CSc2nnc(-c3ccc(NC(C)=O)cc3)o2)cc1 | inactive: 16.6 µM |
| O=C(/C=C/c1ccc(Cl)c(Cl)c1)CCN1CCN(CCC(=O)/C=C/c2ccc(Cl)c(Cl)c2)CC1 | inactive: 32.2 µM |
| COC(=O)C1Cc2c(n(Cc3ccccc3)c3ccccc23)C(CCC(=O)O)N1C(C)C (stereo unspecified) | inactive: > 100 µM |
| CN1C(=O)C2(c3ccccc31)C1CC3C(CO1)C1C2C3(CO)CN1C#N (stereo unspecified) | inactive: > 100 µM |
| c1cncc(CC2(c3cc4ccccc4[nH]3)OCCO2)c1 | inactive: > 100 µM |
| O=S(=O)(O)c1ccc2c(/N=N/c3ccc(S(=O)(=O)O)c4ccccc34)c(O)c(S(=O)(=O)O)cc2c1 | inactive: > 100 µM |
| C[C@@H]1CC[C@]2(C)C3(C)CC[C@]2(OC3=O)[C@@]12CC(c1ccoc1)OC2=O (stereo partly specified) | inactive: > 100 µM |
| c1ccc(COC[C@H]2O[C@@H](c3ccccc3)C[C@@H](OCc3ccccc3)C2OCc2ccccc2)cc1 (stereo partly specified) | inactive: > 10 µM |
| O=C(O)C1[C@@H](C(=O)O)C1(Br)CBr (stereo partly specified) | inactive: > 100 µM |
| N#CC(C#N)=C(C(C#N)C#N)C(C#N)C#N | inactive: > 100 µM |
| Cc1[nH]n(-c2nc3c(c(=O)[nH]2)CCC3)c(=O)c1CCO | inactive: > 100 µM |
| CC(C)=CCC[C@](C)(O[C@@H]1O[C@H](CO)[C@@H](O)[C@H](O)[C@H]1O)[C@H]1CC[C@]2(C)[C@@H]1[C@H](O)C[C@@H]1[C@@]3(C)CC[C@H](O)C(C)(C)[C@@H]3[C@@H](O[C@@H]3O[C@H](CO)[C@@H](O)[C@H](O)[C@H]3O[C@@H]3O[C@@H](C)[C@H](O)[C@@H](O)[C@H]3O)C[C@]12C.CC(C)=CCC[C@](C)(O[C@@H]1O[C@H](CO)[C@@H](O)[C@H](O)[C@H]1O)[C@H]1CC[C@]2(C)[C@@H]1[C@H](O)C[C@@H]1[C@@]3(C)CC[C@H](O)C(C)(C)[C@@H]3[C@@H](O[C@@H]3O[C@H](CO)[C@@H](O)[C@H](O)[C@H]3O[C@@H]3O[C@H](CO)[C@@H](O)[C@H](O)[C@H]3O)C[C@]12C | inactive: > 75 µM |
| COc1cc2c(cc1OCCCCCOc1cc3c(cc1OC)C(=O)N1CCC[C@H]1C(=O)N3)N=C[C@@H]1CCCN1C2=O | active: 0.288 µM |
| O=C1C(c2ccc(Cl)cc2)=[N+]([O-])c2ccccc21 | inactive: 25.2 µM |
